In the antibiotic and cytotoxicity screens of Wong et al. (2023):
The list shows a part of the results.

How the values were obtained:
HSkMC = human skeletal muscle cells; assay: cytotoxicity call (relative viability < 0.9); conditions: 10 µM
S. aureus RN4220 = assay: growth inhibition call (relative growth <= 0.2); conditions: 50 µM

SMILES | cytotoxicity call (HSkMC) | growth inhibition call (S. aureus RN4220)
Cc1cc(C(=O)Nc2cccc3c2O[C@@H](CN(C)Cc2ccncc2)[C@H](C)CN([C@H](C)CO)C3=O)n(C)n1 | inactive | inactive
CS(=O)(=O)CS(=O)(=O)C1=C(N2CCOCC2)C2CCN1CC2 | inactive | inactive
COc1cccc(C#Cc2ccc3c(c2)O[C@H](CN(C)C(=O)c2ccccn2)[C@@H](C)CN([C@H](C)CO)S3(=O)=O)c1 | inactive | inactive
Cc1noc(C)c1S(=O)(=O)Nc1ccc2c(c1)CC(=O)N([C@@H](C)CO)C[C@H](C)[C@H](CN(C)S(=O)(=O)c1ccc(F)cc1)O2 | inactive | inactive
NC(=O)NCC#Cc1ccc2c(c1)[C@]1(C(=O)N2)[C@H](c2ccccc2OCCO)N2[C@H](c3ccccc3)[C@H](c3ccccc3)OC(=O)[C@H]2[C@@H]1C(=O)O | inactive | inactive
Cc1ccc(S(=O)(=O)N(C)C[C@@H]2OCCCC[C@@H](C)Oc3ccc(NC(=O)CCC(F)(F)F)cc3C(=O)N([C@H](C)CO)C[C@H]2C)cc1 | inactive | inactive
C[C@@H]1CCCCO[C@@H](CN(C)S(=O)(=O)c2ccc(F)cc2)[C@H](C)CN([C@@H](C)CO)C(=O)c2cc(NC(=O)C3CCCCC3)ccc2O1 | inactive | inactive
C[C@H]1CN([C@@H](C)CO)C(=O)Cc2cc(N(C)C)ccc2O[C@@H]1CN(C)S(=O)(=O)c1cn(C)cn1 | inactive | inactive
C[C@@H]1CN([C@H](C)CO)C(=O)c2cc(NS(=O)(=O)c3cn(C)cn3)ccc2O[C@@H]1CN(C)S(C)(=O)=O | inactive | inactive
O=C(C[C@@H]1C[C@@H]2c3cc(NS(=O)(=O)c4ccc(F)cc4)ccc3O[C@@H]2[C@H](CO)O1)NCC(F)(F)F | inactive | inactive
C[C@@H]1CCCCO[C@@H](CN(C)CC2CCCCC2)[C@H](C)CN([C@H](C)CO)C(=O)c2cc(NC(=O)c3ccccc3)ccc2O1 | inactive | inactive
COc1ccc(S(=O)(=O)N(C)C[C@@H]2Oc3c(NC(=O)Nc4cccc5ccccc45)cccc3C(=O)N([C@@H](C)CO)C[C@H]2C)cc1F | inactive | inactive
C[C@H]1CN([C@@H](C)CO)C(=O)Cc2cc(NS(=O)(=O)c3cccs3)ccc2O[C@H]1CN(C)Cc1ccncc1 | inactive | inactive
C[C@H](CO)N1C[C@H](C)[C@H](CN(C)C(=O)CN2CCOCC2)Oc2cc(C#Cc3cccc(F)c3)ccc2S1(=O)=O | inactive | inactive
C[C@H](CO)N1C[C@H](C)[C@H](CN(C)Cc2ccc(-c3ccccc3)cc2)Oc2ccc(NC(=O)Cc3ccccc3)cc2CC1=O | inactive | inactive
C[C@@H]1CN([C@@H](C)CO)C(=O)c2cc(NC(=O)c3ccccc3)ccc2O[C@@H](C)CCCCO[C@H]1CN(C)Cc1ccncc1 | inactive | inactive
O=C(O)CC1CCOCC1 | inactive | inactive
C[C@H]1CCCCO[C@@H](CN(C)Cc2ccc(C(F)(F)F)cc2)[C@@H](C)CN([C@@H](C)CO)C(=O)c2cc(NS(=O)(=O)c3ccc(F)cc3)ccc2O1 | inactive | inactive
COCC#Cc1cnc2c(c1)C(=O)N([C@@H](C)CO)C[C@@H](C)[C@H](CN(C)C(=O)Nc1ccc(OC)cc1)O2 | inactive | inactive
O=C(C[C@@H]1CC[C@H]2[C@@H](COC[C@H](O)CN2S(=O)(=O)c2cccc(F)c2)O1)NCc1ccc(Cl)c(Cl)c1 | inactive | inactive
CCC1OC(=O)C(C)C(OC2CC(C)(OC)C(O)C(C)O2)C(C)C(OC2OC(C)CC(N(C)C)C2O)C(C)(O)CC(C)CN(C)C(C)C(O)C1(C)O (stereo not given) | inactive | active
O=C(O)/C=C\C(=O)NCc1ccccc1 | inactive | inactive
C[C@H]1CN([C@@H](C)CO)C(=O)c2cccc(NC(=O)C3CC3)c2O[C@H]1CN(C)Cc1ccc2c(c1)OCO2 | inactive | inactive
COc1ccc(S(=O)(=O)Nc2ccc3c(c2)CC(=O)N([C@H](C)CO)C[C@@H](C)[C@@H](CN(C)C(=O)Nc2c(C)noc2C)O3)cc1 | inactive | inactive
COc1ccc2c3c([nH]c2c1)[C@@H](CO)N(Cc1ccncc1)C[C@]13CCN(CC1)Cc1ccc(cc1)-c1ccccn1 | inactive | inactive
